Six compounds from PubChem BioAssay AID1963964 (Molecular Pharmacology Branch, DTP, NCI, 2024) can be followed below.

Certain results were filed several times, with different values. Only these are listed. The source may hold further records. Results that share an entry are repeats (runs, samples, wells, individuals or studies).

The assay deals with 997726-040-R-J2-PDC tumor spheroids, viability. Briefly: Anticancer human tumor 997726-040-R-J2-PDC patient-derived squamous cell lung carcinoma cell line growth inhibition [PI3K]. The note with it: spheroids with HUVEC and MSC; for viability, T/C: stronger effect = lower value; for IC50: compound alone. From the text: Combinatorial screen of targeted agents with the PI3K inhibitors inavolisib, alpelisib, duvelisib, and copanlisib in multi-cell type tumor spheroids
A high-throughput screen of multi-cell type tumor spheroids was designed to identify active combinations of targeted small molecules and PI3K pathway inhibitors. Complex spheroids include a stromal component modeled by human endothelial cells (HUVEC) and fibroblasts modeled by human mesenchymal stem cells (MSCs). The concentration ranges selected for each drug and investigational agent were based upon clinically achievable concentrations if the clinical Cmax of the agent was known.
Compounds. The drugs and investigational agents: inavolisib (NSC800729), alpelisib (NSC765974), duvelisib (NSC772469), copanlisib (NSC816437), ipatasertib (NSC767898), afuresertib (NSC778305), talazoparib (NSC767125), sapanisertib (NSC764658), selumetinib (NSC741078), tovorafenib (DAY101, NSC766906), vemurafenib (NSC761431), ravoxertinib (NSC781343), sotorasib (NSC818433), MRTX1133 (NSC 836407), abemaciclib (NSC 768073), palbociclib (NSC758247), venetoclax (NSC 766270), SY5609 (NSC837396), enzalutamide (NSC755605), and darolutamide (NSC825331), were obtained from the National Cancer Institute (NCI) Developmental Therapeutics Program Chemical Repository. The FDA-approved anticancer drug set is available from the NCI Developmental Therapeutics Program. […] The stock solutions were prepared in dimethyl sulfoxide (DMSO, Sigma-Aldrich, St. Louis, MO, cat. D2650) at 800-fold the tested concentration and stored at -70 degrees C prior to their use. All drugs and investigational agents were tested over a range starting from a high concentration at or near the clinical Cmax and decreasing in half-log increments. If the clinical Cmax for an agent had not been determined, the highest concentration tested was 10 microM.
Cell Culture. All cells were maintained in an incubator at 37 degrees C and 5% CO2 with 95% humidity. The PDC lines were cultured according to standard operating procedures established by the NCI PDMR (https://pdmr.cancer.gov/sops/default.htm). All PDCs were thawed and cultured in Matrigel-coated flasks prepared with a working solution of 1X Ham's F-12 nutrient mix, without supplementation (Invitrogen, Waltham, MA, cat. 11765054), 100 U/mL penicillin-streptomycin (Invitrogen, cat. 15140122), and 2.5% Matrigel (Corning Inc., Corning, NY, cat. 354248) for the first three passages. The 354836-022-R-J1-PDC, 475296-252-R-J1-PDC, and 997726-040-R-J2-PDC lines were cultured in 6A media, which includes advanced DMEM/F-12 (Thermo Fisher Scientific, cat. 12634028), 10 mM HEPES (Thermo Fisher Scientific, cat. 15630080), 1X GlutaMAX supplement (Thermo Fisher Scientific, cat. 35050061), 0.1 mg/mL primocin (InvivoGen, San Diego, CA, cat. ant-pm-2), 10% defined fetal bovine serum, heat inactivated (HyClone Laboratories Inc., Logan, UT, cat. SH30070.03HI), 50% L-WRN conditioned media (ATCC, cat. CRL-3276), 1.25 mM N-Acetyl-L-cysteine (Sigma-Aldrich, cat. A9165), 10 mM nicotinamide (Sigma-Aldrich, cat. N0636), 1X B-27 supplement (Thermo Fisher Scientific, cat. 17504044), 1X N-2 supplement (Thermo Fisher Scientific, cat. 17502048), and 10 microM Y-27632 dihydrochloride (Tocris Bioscience, Bristol, United Kingdom, cat. 1254). The 624824-186-R-J2-PDC line was cultured in 6C/Colon 1B media, which includes all 6A media components plus 50 ng/mL human EGF recombinant protein (Thermo Fisher Scientific, cat. PHG0311). […]

Broadly, the viability, T/C is the ratio of treated to control. Usually IC50 stands for the concentration that inhibits the measured activity by half.
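Note: spheroids exposed to compounds for seven days before readout.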

As to `CCN1CCN(Cc2ccc(Nc3ncc(F)c(-c4cc(F)c5nc(C)n(C(C)C)c5c4)n3)nc2)CC1`, the viability, T/C (compound alone 1 µM) was 60.2, 63.9, 86.3, 85.4%.

As for `CCCS(=O)(=O)Nc1ccc(F)c(C(=O)c2c[nH]c3ncc(-c4ccc(Cl)cc4)cc23)c1F`, the viability, T/C (compound alone 3.16 µM) was 121, 103, 159, 164%.

As for `Cn1cnc2c(F)c(Nc3ccc(Br)cc3Cl)c(C(=O)NOCCO)cc21`, the IC50 is on record as 264, 286, 87.9, 447 nM.

In the case of `CC1(C)CCC(CN2CCN(c3ccc(C(=O)NS(=O)(=O)c4ccc(NCC5CCOCC5)c([N+](=O)[O-])c4)c(Oc4cnc5[nH]ccc5c4)c3)CC2)=C(c2ccc(Cl)cc2)C1`, for the setting “compound alone 0.316 µM”, the viability, T/C was 83.9, 99.7, 113, 102%.

Regarding `CC1(C)CCC(Nc2ncc(C(F)(F)F)c(-c3c[nH]c4c(P(C)(C)=O)c(C#N)ccc34)n2)CN1` (configuration not stated), the IC50 was < 31.6 nM, 3.38 µM, 31.6 nM. Also, where the note is “compound alone 3.16 µM”, the viability, T/C is given as 36.6, 35, 60.6, 52.3%.

As to `C[C@@H](NC(=O)c1ncnc(N)c1Cl)c1ncc(C(=O)Nc2cc(C(F)(F)F)c(Cl)cn2)s1`, the viability, T/C (compound alone 0.0316 µM) is given as 118, 97.8, 130, 122%.
